In patent CN117603358A:

Tests used:
Assay in all cases: SPR (Biacore 8K), antibody captured on Protein A chip, RBD as analyte
[1] = molecular target: SARS-CoV-2(BF.7) Spike RBD (SARS-CoV-2 BF.7)
[2] = molecular target: SARS-CoV-2(BA.5) Spike RBD (SARS-CoV-2 BA.5)
[3] = molecular target: SARS-CoV-2 XBB(Omicron) Spike RBD (SARS-CoV-2 XBB)
[4] = molecular target: SARS-CoV-2 BQ.1.1(Omicron) Spike RBD (SARS-CoV-2 BQ.1.1)

B1: 双特异性抗体蛋白DIA-19 (bispecific antibody)
chain: QITLKESGPTLVKPTQTLTLTCTFSGFSLSTSGVGVAWIRQPPGKALEWLALIYWDNDKRSSPSLNNRLTITKDTSKNQVVLTMTNMDPEDTATYYCAHFFSHYDSSNYYYGSWFDPWGQGTLVTVSSGGGGSGGGGS[sequence of about 100 residues omitted]FTFGPGTKVDIKGGGGSGGGGSGGGGSGGGGSGGGGSEVQLVESGGGVVQPGGSLRLSCAVSGFTFDDYAMHWVRQAPGKGLDWVSLISGDGSYTYYADSVKGRFTISRDSSKNSLYLQMNSLRTEDTALYYCAKAQTPTLWWLQDAFDIWGQGTMVTVSSGGGGSGGGGSEIVLTQSPGTLSLSPGERATLSCRASQSFDSRYLGWYQQKSGQAPRLLIYGASSRATGIPDRFSGSGSGTDFTLTISRLEPEDFAVYYCQQFGDSPFTFGQGTKLEIKGGGGS[sequence of human IgG1 Fc with changes omitted]
- Kd [1]: 45 pM
- Kd [2]: 35.9 pM
- Kd [3]: 81.1 pM
- Kd [4]: 203 pM
